We go through 38 compounds from PubChem BioAssay AID1745853 (National Center for Advancing Translational Sciences (NCATS), 2022).

Common to all, as to assay: Primary Screen for Target Class Profiling of Small Molecule Inhibitors of Methyltransferases
In assay [1] the target is Glycine N-methyltransferase (Homo sapiens) (UniProt Q14749). The settings on record: purified enzyme, MTase-Glo SAH luminescence; measured here: GNMT inhibition; at 40 µM; stronger effect = lower value. The method in brief: (§1)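 Each enzyme was reacted with SAM and its substrate, with compounds tested once at 40 uM; SAH formed was read by MTase-Glo luminescence.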
Assay [2] has as its target Guanidinoacetate N-methyltransferase (Homo sapiens) (UniProt Q14353). The note with it: purified enzyme, MTase-Glo SAH luminescence; measured here: GAMT inhibition; at 40 µM; stronger effect = lower value. The method in brief: as §1
In assay [3] the target is Histamine N-methyltransferase (Homo sapiens) (UniProt P50135). The settings on record: purified enzyme, MTase-Glo SAH luminescence; measured here: HNMT inhibition; at 40 µM; stronger effect = lower value. The method in brief: as §1
Assay [4] deals with Nicotinamide N-methyltransferase (Homo sapiens) (UniProt P40261). The settings on record: purified enzyme, MTase-Glo SAH luminescence; measured here: NNMT inhibition; at 40 µM; stronger effect = lower value. In a few lines:
as §1

Assay [5] has as its target Phenylethanolamine N-methyltransferase (Homo sapiens) (UniProt P11086). The note with it: purified enzyme, MTase-Glo SAH luminescence; measured here: PNMT inhibition; at 40 µM; stronger effect = lower value. In a few lines:
as §1

The list shows a part of the results. Further columns of the screen follow, without active or inactive calls.
% is set by controls: 0 for no effect and ±100 for the full control effect.

Take `CCOCCn1nc(C)cc1C(=O)N[C@H]1[C@H]2CCO[C@H]2[C@@H]1N(C)C`: the activity change, negative = inhibition is -6.03% in assay [1]; -3.52% in assay [2]; 0.515% in assay [3]; -5.68% in assay [4]; -0.21% in assay [5].
For `C[C@@H](NC(=O)c1ncnc(N)c1Cl)c1ncc(C(=O)Nc2cc(C(F)(F)F)c(Cl)cn2)s1` the same measures were -4.83%, 1.12%, -6.77%, -20% and -7.6%.
On the same counts, the results for `CCOC(=O)c1ccc2c(c1)C1C=CCC1C(c1ccc(Br)cc1)N2` (stereo not given) are -16.7%, -7.2%, -14.9%, -19.6% and -19.4%.
For `COc1ccccc1NC(=O)CSc1nnc2n(C)c(=O)c3ccc(C(=O)NC4CCCC4)cc3n12`, the activity change, negative = inhibition was 0.278% in assay [1]; 0.494% in assay [2]; 5.08% in assay [3]; 5.42% in assay [4]; 3.63% in assay [5].
For `CN1C(=O)c2cc(C(=O)NC3CCCCCC3)nn2CC1(C)C(=O)NC1CCCCC1` (stereo not given) the same measures were 0.968%, 0%, 2.51%, 4.32% and 2.99%.
`COc1ccccc1N1CCN(S(=O)(=O)c2cc3c(cc2Cl)n(C)c(=O)n3C)CC1`: the activity change, negative = inhibition in assay [1] was -0.991%; in assay [2] it was 0%; in assay [3], 1.7%; in assay [4], -3.41%; in assay [5], 1.12%.
As for `C[n+]1cc2c3c(ccc2c2ccc4cc5c(cc4c21)OCO5)OCO3`, the activity change, negative = inhibition in assay [1] was -64.4%; in assay [2], -0.906%; in assay [3], -7.72%; in assay [4] it was -13.2%; in assay [5] it was -6.57%.
As to `COc1ccc(CN2C(=O)c3cc4oc(C)cc4n3CC2(C(=O)NC2CCCCCC2)c2ccccc2)cc1` (stereo not given), the activity change, negative = inhibition in assay [1] was -2.94%; in assay [2] it was -1.65%; in assay [3], -6.94%; in assay [4] it was -10.7%; in assay [5] it was -27.7%.
For `Cn1c(=O)c2ccc(C(=O)NC3CCCC3)cc2n2c(SCc3ccccc3)nnc12` the same measures were -3.64%, 4.93%, -1.3%, 1.13% and 2.26%.
On the same counts, the results for `O=c1c2nc(-c3ccsc3)ccc2ncn1-c1ccccc1` are -5.75%, 0.178%, -0.53%, -5% and -2%.
For `CCC1CN(S(=O)(=O)c2ccc3[nH]c4c(c3c2)CCCC4)c2ccccc2S1` (stereo not given) the same measures were 1.06%, 6.91%, -5.33%, -9.83% and -0.17%.
For the compound `COc1ccc(OC)c(CCN2C(=O)c3cc4occc4n3CC2(C)C(=O)NC2CCC(C)CC2)c1` (stereo not given), the activity change, negative = inhibition in assay [1] was -2.27%; in assay [2] it was 0.015%; in assay [3], 3.92%; in assay [4], -3.32%; in assay [5], 0.611%.
In the case of `Cc1cc2c(cc3n2CC(C)(C(=O)NC2CCCCCC2)N(CCCc2ccccc2)C3=O)o1` (stereo not given), the activity change, negative = inhibition in assay [1] came to 4.39%; in assay [2], 2.08%; in assay [3], 9.72%; in assay [4], 4.1%; in assay [5], 4.61%.
For the compound `Clc1cc(NCc2ccccc2Cl)n2nccc2n1`, the activity change, negative = inhibition is -19.9% in assay [1]; -5% in assay [2]; -7.49% in assay [3]; -19.8% in assay [4]; -1.34% in assay [5].
For the compound `CN(c1ccc(NC(=O)Nc2ccccc2)cc1)S(=O)(=O)c1cnn(-c2ccc(F)cc2)c1`, the activity change, negative = inhibition in assay [1] was 3.87%; in assay [2] it was -2.63%; in assay [3], -2.46%; in assay [4], -18.4%; in assay [5], -3.78%.
For `Cc1cc(C)c(Nc2ccnc(Nc3ccc(C#N)cc3)n2)c(C)c1` the same measures were -6.43%, -17.8%, -5.44%, -37.5% and -15.2%.
Regarding H-DPPDPDRFYGMM-NH2, the activity change, negative = inhibition in assay [1] was 3.67%; in assay [2], 4.27%; in assay [3], 12.9%; in assay [4] it was -6.27%; in assay [5], 6.01%.
For the compound `CCn1cc(S(=O)(=O)N2CCC[C@H]2c2nc(-c3ccc(F)cc3)n[nH]2)cn1`, the activity change, negative = inhibition was -3.99% in assay [1]; -6.99% in assay [2]; -0.502% in assay [3]; -10.1% in assay [4]; -5.47% in assay [5].
On the same counts, the results for `CCN1C(=O)c2cc3ccccc3n2CC1(C)C(=O)NCC(=O)NCc1ccc(C)cc1` (stereo not given) are 0.304%, 0%, 8.05%, -1.51% and 2.02%.
For `COC1=CC(=O)O[C@@H](CCc2ccccc2)[C@@H]1O` the same measures were 2.99%, 0.997%, 12.3%, -11.9% and -5.07%.
For `CC1CCN(S(=O)(=O)c2ccc3c(ccn3CC(=O)NC3CC3)c2)CC1` the same measures were -3.03%, 4.03%, -1.65%, -0.786% and 0.186%.
As to `C[C@@H]1C(=O)O[C@H]2[C@H]1CC[C@@]1(C)C(=O)C=C[C@@](C)(O)[C@H]21`, the activity change, negative = inhibition is 4.66% in assay [1]; 4.63% in assay [2]; 9.23% in assay [3]; -7.28% in assay [4]; 3.38% in assay [5].
As to `O=C(c1cscn1)N1CCC2(CCCN(CCC3CCCCC3)C2=O)C1` (stereo not given), the activity change, negative = inhibition is -0.734% in assay [1]; 1.62% in assay [2]; 1.6% in assay [3]; -14.4% in assay [4]; 8.85% in assay [5].
For `Cc1noc([C@@H]2CN(C3CCCCCC3)C[C@H]2CO)n1` the same measures were -2.32%, 0.943%, 0.462%, -4.49% and 9.85%.
For `CC(=O)Nc1ccc2c(c1)S(=O)(=O)N=C(CC(C)C)N2CC(C)C` the same measures were -9.23%, -9.97%, -22.9%, -14.6% and -8.54%.
On the same counts, the results for `CCOC(=O)C(Cc1cccc(N2CCC(Nc3ccccc3)CC2)c1F)OC` (stereo not given) are -3.61%, 1.32%, 2.07%, 0.105% and 3.73%.
With `O=C(c1cccs1)N1CCCC(Cc2noc(-c3cnccn3)n2)C1` (stereo not given), the activity change, negative = inhibition is -1.91% in assay [1]; -0.454% in assay [2]; -0.361% in assay [3]; -3.53% in assay [4]; -8.63% in assay [5].
On the same counts, the results for `CC[C@H](C)[C@H](NC(=O)[C@H]([C@@H](C)CC)N(C)C(C)=O)C(=O)N[C@H](C(=O)N[C@@H](CC(C)C)C(=O)[C@@]1(C)CO1)[C@@H](C)O` are -4.1%, -8.63%, 4.74%, -13% and -4.79%.
On the same counts, the results for `O=C(O[C@H]1[C@@H]2C[C@@H]3OC[C@@](O)([C@H]2[C@H](O[C@@H]2O[C@H](CO)[C@@H](O)[C@H](O)[C@H]2O)O3)[C@@H]1O)c1ccccc1` are 0.78%, 3.33%, 9.49%, -9.66% and 3.01%.
On the same counts, the results for `C=CCn1c(=O)c2ccc(C(=O)NCC(C)C)cc2n2c(=O)n(CC(=O)NC(C)C)nc12` are 5.21%, 0%, 0.618%, 7.04% and 7.18%.
`CCCn1c(=O)c2ccc(C(=O)NC(C)C)cc2n2c(=O)n(CC(=O)Nc3ccc(F)cc3)nc12`: the activity change, negative = inhibition is -0.54% in assay [1]; 4.59% in assay [2]; -0.159% in assay [3]; -2.53% in assay [4]; 2.48% in assay [5].
On to `O=C(Cc1ccncc1)N1CC(F)(F)C[C@H]1c1nc(C2CC2)no1`, for which the activity change, negative = inhibition is -2.85% in assay [1]; -3.14% in assay [2]; 0.333% in assay [3]; -8.61% in assay [4]; -17% in assay [5].
On the same counts, the results for `O=C(Nc1ccccc1F)C1CCCN(Cc2cccc(-c3cccs3)c2)C1` (stereo not given) are -7.72%, -10.5%, -5.58%, -15.1% and -8.53%.
For `O=C1C[C@@H](c2ccc(O)cc2)Oc2cc(O)ccc21` the same measures were 2.84%, 5.02%, 11.2%, -10.5% and 3.43%.
Regarding `O=C(CCc1nnc2n(Cc3ccc(Cl)cc3)c(=O)c3ccccc3n12)N1CCN(c2ccc(F)cc2)CC1`, the activity change, negative = inhibition in assay [1] is 3.06%; in assay [2], 3.29%; in assay [3] it was 0.156%; in assay [4], -9.19%; in assay [5], -1.28%.
On the same counts, the results for `O=C(c1ccc(Nc2nccc(-c3cc4ccccc4s3)n2)cc1)N1CCC(N2CCCC2)CC1` are -72.2%, 8.19%, -58.9%, -25.5% and -13.6%.
For `CC(C)c1nc2ccccc2n1CC(=O)N1CC[C@](C)(O)[C@@H](O)C1` the same measures were -3.3%, -3.01%, -1.1%, -8.3% and -9.26%.
For `CN(C)S(=O)(=O)N1CCC2(CCC(=O)N(CC3CC3)CC2)CC1` the same measures were 0.528%, 4.26%, 0.62%, -5.62% and 13.8%.
